Data from PubChem BioAssay AID588453 (National Center for Advancing Translational Sciences (NCATS), 2011).
In all, about 390,000 compounds went through this assay and about 4,000 (1%) were called active. Inconclusive means that the source gave no clear call. Such entries were picked first, then a sample of the others. Calls come from the whole dose curve; as a rule, active = well fitted inhibition curve with a large enough effect; inconclusive = small, poorly fitted or top-dose-only effect; inactive = no such curve, though single readings can be large or run the other way. Potencies of inconclusive entries are doubtful fits and often do not repeat.

Each compound was assayed against Thioredoxin reductase 1, cytoplasmic (Rattus norvegicus) (UniProt O89049) (assay: qHTS Assay for Inhibitors of Mammalian Selenoprotein Thioredoxin Reductase 1 (TrxR1): qHTS). Conditions: recombinant rTrxR1, NADPH fluorescence consumption, selenite substrate; series mostly up to 114 µM.
Procedure, shortened: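 Rat TrxR1 (90 nM in the dispensed reagent) was pre-reduced with 400 uM NADPH for 5 min at room temperature, then incubated with compound for 15 min. After 400 uM selenite was added, NADPH fluorescence (Ex 340/Em 450 nm) was followed for 8 min.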
Note: nearly all actives have a fitted effect of over 65% in size.
Potency is the fitted concentration of half-maximal effect; tags give direction and shape of the fitted curve.

Chain of UniProt O89049 (O89049 whole entry, looked up): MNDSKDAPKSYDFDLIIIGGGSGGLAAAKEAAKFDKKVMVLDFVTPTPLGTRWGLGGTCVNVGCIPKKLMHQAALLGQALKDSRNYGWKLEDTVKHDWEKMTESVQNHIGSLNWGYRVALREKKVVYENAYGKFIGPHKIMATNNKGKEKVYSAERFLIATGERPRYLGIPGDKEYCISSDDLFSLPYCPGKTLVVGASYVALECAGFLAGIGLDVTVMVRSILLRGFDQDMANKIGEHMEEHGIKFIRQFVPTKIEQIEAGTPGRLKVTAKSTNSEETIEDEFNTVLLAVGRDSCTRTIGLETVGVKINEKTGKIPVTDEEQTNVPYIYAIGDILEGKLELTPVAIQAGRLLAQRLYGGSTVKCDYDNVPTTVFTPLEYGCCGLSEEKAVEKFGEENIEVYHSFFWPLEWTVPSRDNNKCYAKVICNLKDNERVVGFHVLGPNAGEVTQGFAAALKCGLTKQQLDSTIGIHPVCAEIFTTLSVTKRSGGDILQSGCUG

Row | SMILES | Potency
1 | CC(C)c1cc(N=NC(N)=O)cc(C(C)C)c1O | inconclusive: 56.2 µM [inhibitor, partial curve, poor fit]
2 | COc1ccccc1N1CCN(Cc2cc(Br)c(O)c3ncccc23)CC1 | inconclusive: 25.1 µM [inhibitor, single point]
3 | CC1CCCCN1CCNC(=O)C1CCN(S(=O)(=O)c2cccc3cccnc23)CC1 (configuration not stated) | inconclusive: 0.631 µM [inhibitor, full curve, poor fit]
4 | O=C(c1cc(Br)ccc1O)N(Cc1ccco1)Cc1cccs1 | inconclusive: 17.8 µM [inhibitor, full curve]
5 | NC(=O)C1CCN(C(=O)CC2C(=O)NCCN2Cc2cccc(Oc3ccccc3)c2)CC1 (configuration not stated) | inconclusive: 50.1 µM [inhibitor, partial curve]
6 | CCOc1ccc(C2C3=C(CCCC3=O)Nc3ccc4ncccc4c32)cc1 (configuration not stated) | inconclusive: 56.2 µM [inhibitor, partial curve]
7 | Cc1cc(=O)n2ccccc2c1C#N | inconclusive: 25.1 µM [inhibitor, single point]
8 | Cc1cc2nc(CCN(Cc3cccnc3)C(=S)Nc3ccccc3)[nH]c2cc1C | inactive
9 | CCN(CC)S(=O)(=O)c1ccc(N2CCOCC2)c(NC(=O)C2=COCCO2)c1 | inconclusive: 89.1 µM [inhibitor, single point]
10 | CCOC(=O)C(=CNc1cccc(C)c1C)C(=O)OCC | inconclusive: 12.6 µM [inhibitor, partial curve, poor fit]
11 | COc1cccc(/C(O)=C2/C(=O)C(=O)N(c3cc(C)on3)C2c2cccs2)c1 (configuration not stated) | inconclusive: 56.2 µM [inhibitor, partial curve, poor fit]
12 | CN1CCN(C2=C(Cl)C(=O)N(c3cccc(Cl)c3)C2=O)CC1 | inconclusive: 44.7 µM [inhibitor, partial curve]
13 | Cc1ccc(S(=O)(=O)N2CCC(C(=O)NCCCN3CCCCCC3)CC2)cc1 | inconclusive: 5.62 µM [inhibitor, full curve]
14 | O=C(N/C(=C/c1ccccc1F)C(=O)N1CCCCC1)c1ccccc1 | inactive
15 | O=C(O)c1ccc(NC(=S)Nc2ccc(S(=O)(=O)Nc3ccccn3)cc2)cc1 | inconclusive: 17.8 µM [inhibitor, full curve]
16 | CCn1c(-c2ccc(OC)c(OC)c2)n[nH]c1=S | inconclusive: 79.4 µM [inhibitor, single point]
17 | O=C(CCN1C(=O)/C(=C\c2ccco2)SC1=S)Nc1ccc(C(=O)O)c(O)c1 | active: 39.8 µM
18 | NNC(=O)c1[nH]c2ccc(Br)cc2c1-c1ccccc1 | inactive
19 | COCCN1C(=O)C(=O)/C(=C(/O)c2ccc3c(c2)OCCO3)C1c1ccc(C(=O)OC)cc1 (configuration not stated) | inconclusive: 79.4 µM [inhibitor, single point]
20 | C=C1CCN(C(Cc2ccccc2)C(=O)OC)S(=O)(=O)c2ccc(F)cc21 (configuration not stated) | inconclusive: 70.8 µM [inhibitor, single point]
21 | OC(CN1CCN(C(c2ccccc2)c2ccccc2)CC1)c1ccc(Br)cc1 (configuration not stated) | inactive
22 | O=C(/C=C/c1ccccc1)Nc1nc(-c2ccncc2)cs1 | inactive
23 | COc1cccc(C2C=C(c3cccs3)Nc3ncnn32)c1OC (configuration not stated) | inconclusive: 79.4 µM [inhibitor, partial curve, poor fit]

Row | SMILES | Potency
24 | CCN1CCOC(=O)C1CC(=O)Nc1cc(Cl)ccc1OC (configuration not stated) | active: 11.2 µM
25 | Cc1ccc(/C=C/C(=O)Nc2ccc([N+](=O)[O-])cc2)o1 | inconclusive: 10 µM [inhibitor, full curve]
26 | COC(=O)C1=C(C)N(CCC2=CCCCC2)C(=O)C1 | inconclusive: 31.6 µM [inhibitor, full curve, poor fit]
27 | Cn1c(=O)c(C(=O)CN2CCCc3ccccc32)c(N)n(Cc2ccccc2)c1=O | inconclusive: 3.16 µM [inhibitor, single point]
28 | CCOC(=O)c1[nH]c(C)c(C(=O)N2CCN(c3ccccc3OC)CC2)c1C | inconclusive: 28.2 µM [inhibitor, single point]
29 | Cc1cc(C)nc(Nc2n[nH]c(-c3ccc(C(C)(C)C)cc3)n2)n1 | inactive
30 | CC1=C(C(=O)Nc2ccccc2F)C(c2ccsc2)C2=C(CC(C)(C)CC2=O)N1 (configuration not stated) | inactive
31 | Cc1ccc(CNC(=O)C2CCN(c3ncnc4c3nc3n4CCCCC3)CC2)cc1 | inconclusive: 89.1 µM [inhibitor, single point]
32 | O=C1NC(=O)/C(=C/c2ccc(-c3ccc(F)cc3O)o2)S1 | inconclusive: 21.2 µM [inhibitor, single point]
33 | COc1ccccc1COC(=O)Nc1c(C)nn(C)c1Cl | inactive
34 | O=C(O)CCc1ccc(-c2ccc(Cl)cc2)n1-c1cccc(C(F)(F)F)c1 | inconclusive: 70.8 µM [inhibitor, single point]
35 | O=C(Cc1ccc(F)cc1)NCCc1csc(-c2ccc(C(F)(F)F)cc2)n1 | inactive
36 | O=[N+]([O-])c1cnc(Sc2ccncn2)s1 | inconclusive: 0.316 µM [inhibitor, full curve]
37 | CCOc1cc(/C=C2/COc3ccccc3C2=O)ccc1OCC(=O)N(C)C | inconclusive: 28.2 µM [inhibitor, partial curve, poor fit]
38 | Cc1ccc(CN(Cc2cccnc2)C(=O)CN2C(=O)COc3ccccc32)o1 | inconclusive: 5.01 µM [inhibitor, single point]
39 | O=C(OCc1nnc(-c2ccccc2)o1)C1CC(=O)N(Cc2ccco2)C1 (configuration not stated) | inconclusive: 31.6 µM [inhibitor, partial curve, poor fit]
40 | Cc1[nH]n(-c2ccc([N+](=O)[O-])cc2)c(=O)c1C=NCCN1CCN(C(=O)c2ccc(Br)cc2)CC1 | inactive
41 | COc1ccc(S(=O)(=O)N2N=C(c3ccc(NS(C)(=O)=O)cc3)CC2c2ccco2)cc1 (configuration not stated) | inconclusive: 89.1 µM [inhibitor, single point]
42 | O=C(O)COc1ccccc1/C=N/NC(=O)c1cc(-c2ccccc2)nc2ccccc12 | inactive
43 | N=c1oc2cc(O)ccc2cc1C(=O)Nc1ccc(Br)cc1 | inactive
44 | CCOC(=O)C1CCN(C(c2cccnc2)c2c(NC(=O)c3ccco3)sc(C)c2C)CC1 (configuration not stated) | inconclusive: 17.8 µM [inhibitor, partial curve, poor fit]
45 | O=[N+]([O-])c1ccc(N/N=C2/CCCCC2c2ccccn2)cc1 (configuration not stated) | inconclusive: 79.4 µM [inhibitor, single point]
46 | Cc1ccc(Nc2nnc(SCC(=O)c3cc4ccccc4o3)s2)cc1C | inconclusive: 15.8 µM [inhibitor, full curve]

Row | SMILES | Potency
47 | O=C(Nc1ccc(F)cc1)c1ccccc1NC(=O)C1CCCCC1C(=O)O (configuration not stated) | inconclusive: 70.8 µM [inhibitor, partial curve]
48 | NS(=O)(=O)c1ccc(NC(=S)NC(=O)c2cccc(Br)c2)cc1 | inconclusive: 31.6 µM [inhibitor, single point]
49 | Oc1ccccc1/C=N/Nc1cccc2cccnc12 | inconclusive: 35.5 µM [inhibitor, full curve]
50 | CCN(C(=O)COC(=O)/C(=C/c1ccccc1)n1nnnc1C)C1CCCCC1 | inconclusive: 44.7 µM [inhibitor, single point]
51 | Cc1ccc(S(=O)(=O)N2CCC(C(=O)NCCN3CCCCCC3)CC2)cc1 | inconclusive: 14.1 µM [inhibitor, partial curve]
52 | Cc1ccc2nc(-c3ccc(NC(=O)COCC(=O)O)cc3)sc2c1 | inactive
53 | CCN(CC)C(=O)C1CCCN(c2ncnc3c2nc2n3CCCCC2)C1 (configuration not stated) | inactive
54 | Cc1ccc(S(=O)(=O)N2CCN(c3ccnc4cc(Cl)ccc34)CC2)cc1C | inactive
55 | CN(C)c1ccc(NC(=S)N(CCc2ccccc2)C2CC(=O)N(c3c(Cl)cccc3Cl)C2=O)cc1 (configuration not stated) | inconclusive: 20 µM [inhibitor, single point]
56 | Cc1ccc(C)c2sc(N3CCN(C(=O)c4ccc([N+](=O)[O-])o4)CC3)nc12 | inconclusive: 22.4 µM [inhibitor, single point]
57 | O=C(N/N=C/C=C\c1ccco1)c1cccs1 | inconclusive: 35.5 µM [inhibitor, single point]
58 | C=C(C1=CCN(S(=O)(=O)C(C)(C)C)[C@H]1CCO)c1ccccc1 | inconclusive: 56.2 µM [inhibitor, partial curve]
59 | O=C1CC(NCc2ccncc2)C(=O)N1c1ccccc1 (configuration not stated) | inconclusive: 39.8 µM [inhibitor, full curve, poor fit]
60 | Clc1ccc2c(c1)N=C(N1CCNCC1)c1ccccc1N2 | inconclusive: 20 µM [inhibitor, single point]
61 | Cc1ccccc1C(=O)NC(=S)Nc1ccc(N2CCN(C(=O)c3ccccc3)CC2)cc1 | inconclusive: 8.91 µM [inhibitor, full curve]
62 | COc1ccccc1-c1cc(C(F)(F)F)nc(S(=O)(=O)CCCC(=O)N2CCOCC2)n1 | inconclusive: 25.1 µM [inhibitor, single point]
63 | COc1ccc(N2C(=O)CC(N3CCN(c4nc5ccccc5s4)CC3)C2=O)cc1 (configuration not stated) | inconclusive: 28.2 µM [inhibitor, single point]
64 | CN(Cc1cnn(C)c1)Cc1nc(-c2ccc(Cl)cc2)no1 | inconclusive: 35.5 µM [inhibitor, partial curve, poor fit]
65 | Fc1ccccc1N1CCN(c2cnc3ccccc3n2)CC1 | inactive
66 | CCCCCCCc1c(C#N)c(N)[nH]c(=S)c1C#N | inconclusive: 10 µM [inhibitor, partial curve]
67 | Cc1c(NCc2nc3ccccc3[nH]2)c(=O)n(-c2ccccc2)n1C | inconclusive: 17.8 µM [inhibitor, partial curve]
